# According to PubChem BioAssay (Tox21):
# Values joined by “and” are separate entries in the source; they are usually repeats but may differ in a detail not shown here. Identical values can stand only once. The inconclusive results got no clear call from the source; some entries with a clear call stand among them for comparison. For part of these data: Potencies of inconclusive entries are doubtful fits and often do not repeat. Active and inactive are the calls of the source. Unless noted, calls follow the shape of the dose curve; as a rule, active = well fitted curve in the direction sought with a large enough effect in the repeat runs; inconclusive = weak or mixed curves; inactive = no such curve, though single readings can be large; an effect the other way counts as inactive or inconclusive.
# Tests used:
# [1] = target: Progesterone receptor (Homo sapiens) (UniProt P06401); assay: qHTS assay to identify small molecule antagonists of the progesterone receptor (PR) signaling pathway (AID 1346795; active = well fitted inhibition curve with a large enough effect in the signal ratio in the repeat runs, not every such curve was filed as active; inconclusive = weak or mixed curves; the % refers to the signal ratio; also: potency is read from the fitted curve at half-maximal effect; as to activity change, negative = inhibition: % is scaled to controls: 0 for no effect and ±100 for the full control effect); conditions: PR-UAS-bla HEK293T, beta-lactamase FRET ratio, 16 h; activity change, negative = inhibition: at 92.4 µM (top of the series) unless noted
# In short: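 PR-UAS-bla HEK293T cells carrying a UAS-driven beta-lactamase reporter were plated in medium with 2% charcoal-stripped FBS and rested 6 hr at 37C. Compounds were added with 1 nM R5020 (final) for 16 hr, then FRET substrate loaded 2 hr at room temperature.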
# [2] = Human pregnane X receptor (PXR) small molecule agonists, qHTS cell viability counter screen (AID 1346977); also: potency is read from the fitted curve at half-maximal effect; nearly all actives have a fitted effect of over 50% in size
# In short: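 PXR-Luc HepG2 cells in medium with 5% charcoal-stripped FBS were pre-incubated 5hr, then exposed to compounds for 24hr at 37C. Viability was read in the same wells by CellTiter-Fluor fluorescence, reagent added after 23hr with a 1hr incubation.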
# [3] = Caspase-3/7 induction in HepG2 cells by small molecules, qHTS cell viability counter screen (AID 1346981); also: % is scaled to controls: 0 for no effect and ±100 for the full control effect; nearly all actives have a fitted effect of over 30% in size
# In short: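 In this quantitative HTS counter screen, compounds delivered in DMSO were left on unmodified HepG2 cells for 16 hr at 37 C. Viability was then determined fluorometrically with CellTiter-Fluor, in parallel with caspase-3/7 induction in the same wells.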
# [4] = Caspase-3/7 induction in CHO-K1 cells by small molecules, qHTS cell viability counter screen (AID 1346979); conditions: CellTiter-Fluor fluorescence, 17 h; activity change, negative = cytotoxicity: at 92.4 µM (top of the series); also: nearly all actives have a fitted effect of over 35% in size; also: potency is read from the fitted curve at half-maximal effect; as to activity change, negative = cytotoxicity: % is scaled to controls: 0 for no effect and ±100 for the full control effect
# In short: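 Wild-type CHO-K1 cells were seeded at 1,500 per well, rested 5hr at 37 C, then exposed to compounds in DMSO. After 16hr, CellTiter-Fluor reagent was added and fluorescence read 1hr later as the viability measure.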
# [5] = target: Cytochrome P450 2C19 (Homo sapiens) (UniProt P33261); assay: Cytochrome P450 Family 2 Subfamily C Member 19 (CYP2C19) small molecule antagonists: luciferase reporter qHTS assay (AID 1671197); also: potency is read from the fitted curve at half-maximal effect; nearly all actives have a fitted effect of over 65% in size
# In short: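 P450-Glo CYP2C19 system: enzyme-substrate mix with compound 10 min at room temperature, then NADPH regeneration solution, 1 h at 37C. Proluciferin-to-luciferin conversion detected by luminescence after 20 min with detection reagent; ketoconazole as positive control.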
# [6] = target: Cytochrome P450 2D6 (Homo sapiens) (UniProt P10635); assay: Cytochrome P450 Family 2 Subfamily D Member 6 (CYP2D6) small molecule antagonists: luciferase reporter qHTS assay (AID 1671196); also: potency is read from the fitted curve at half-maximal effect; nearly all actives have a fitted effect of over 50% in size
# In short: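 Test chemicals meet CYP2D6 plus proluciferin substrate (10 min, RT); NADPH regenerating solution then drives turnover for 1 h. Detection reagent halts the reaction; luminescence measured after 20 min.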
# [7] = target: Nuclear receptor subfamily 1 group I member 2 (Homo sapiens) (UniProt O75469); assay: Human pregnane X receptor (PXR) small molecule agonists, qHTS assay (AID 1346982); also: potency is read from the fitted curve at half-maximal effect; nearly all actives have a fitted effect of over 35% in size
# In short: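 Reporter HepG2 cells expressing PXR-Luc are cultured in charcoal-stripped FBS (5%), treated with compounds for 24 hr at 37 C, and assayed by ONE-Glo luminescence after 30 min at room temperature.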
# [8] = target: Cytochrome P450 2C9 (Homo sapiens) (UniProt P11712); assay: Cytochrome P450 Family 2 Subfamily C Member 9 (CYP2C9) small molecule antagonists: luciferase reporter qHTS assay (AID 1671198); also: nearly all actives have a fitted effect of over 50% in size; also: potency is read from the fitted curve at half-maximal effect; as to activity change, negative = inhibition: % is scaled to controls: 0 for no effect and ±100 for the full control effect
# In short: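 CYP2C9 activity was measured with a P450-Glo proluciferin substrate. Enzyme–substrate mix was held with compound for 10 min at room temperature, then NADPH regeneration solution was added for 1 h at 37C. Luciferin product was read as luminescence.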
# [9] = target: Nuclear receptor subfamily 1 group I member 2 (Rattus norvegicus) (UniProt Q9R1A7); assay: Rat pregnane X receptor (rPXR) activation by small molecules, qHTS assay (AID 1346983); conditions: rPXR luciferase reporter cells, One-Glo luminescence, 24 h; max activation: active compounds read high; also: % is scaled to controls: 0 for no effect and ±100 for the full control effect; nearly all actives have a fitted effect of over 20% in size
# In short: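 Cell-based rPXR luciferase reporter assay, 2,000 cells per well, rested 5hr at 37 C before compound addition in DMSO, then 24 hr at 37 C. One-Glo reagent was added and luminescence read after 30 min at room temperature.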
# [10] = target: Nuclear receptor subfamily 1 group I member 2 (Homo sapiens) (UniProt O75469); assay: Human pregnane X receptor (PXR) activation by small molecules, qHTS assay (AID 1346985); also: potency is read from the fitted curve at half-maximal effect; nearly all actives have a fitted effect of over 40% in size
# In short: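 DPX-2 cells (HepG2 co-transfected with a PXR response element and a CYP3A4-promoter luciferase construct) were seeded at 2,000 per well, rested 5 hr at 37C, then exposed to DMSO-dissolved compounds for 24 hr. Activation was read as luciferase luminescence.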
# Tags tell the direction and shape of the fitted curve.
# UniProt P11712, sequence (P11712 whole entry, looked up): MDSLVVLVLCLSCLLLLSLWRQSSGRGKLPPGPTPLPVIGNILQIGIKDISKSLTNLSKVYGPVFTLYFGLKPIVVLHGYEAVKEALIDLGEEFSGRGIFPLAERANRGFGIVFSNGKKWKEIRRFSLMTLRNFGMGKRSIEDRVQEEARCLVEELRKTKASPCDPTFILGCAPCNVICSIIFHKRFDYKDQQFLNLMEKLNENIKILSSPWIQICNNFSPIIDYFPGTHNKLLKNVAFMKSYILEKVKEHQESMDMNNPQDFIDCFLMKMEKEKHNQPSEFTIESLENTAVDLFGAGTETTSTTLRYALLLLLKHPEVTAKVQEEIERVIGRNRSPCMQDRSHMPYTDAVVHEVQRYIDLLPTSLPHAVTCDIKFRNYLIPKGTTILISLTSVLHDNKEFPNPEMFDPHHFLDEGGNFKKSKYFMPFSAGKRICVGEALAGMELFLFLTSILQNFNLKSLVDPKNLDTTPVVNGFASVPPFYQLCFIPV
# UniProt P10635, sequence (P10635 whole entry, looked up): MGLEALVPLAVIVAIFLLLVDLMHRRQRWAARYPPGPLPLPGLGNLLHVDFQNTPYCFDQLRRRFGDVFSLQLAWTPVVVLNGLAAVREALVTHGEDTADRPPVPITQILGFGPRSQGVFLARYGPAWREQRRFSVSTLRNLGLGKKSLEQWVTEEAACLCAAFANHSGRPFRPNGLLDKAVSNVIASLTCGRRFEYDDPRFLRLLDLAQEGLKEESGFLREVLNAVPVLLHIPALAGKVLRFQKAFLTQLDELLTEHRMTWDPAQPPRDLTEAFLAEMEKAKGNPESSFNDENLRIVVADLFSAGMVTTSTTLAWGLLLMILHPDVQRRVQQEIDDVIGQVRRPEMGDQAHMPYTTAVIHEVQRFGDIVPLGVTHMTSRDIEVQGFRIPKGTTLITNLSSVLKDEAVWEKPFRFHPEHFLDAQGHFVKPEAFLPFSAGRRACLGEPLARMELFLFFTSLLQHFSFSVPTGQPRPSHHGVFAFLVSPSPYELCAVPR
# UniProt P06401, sequence (P06401 whole entry, looked up): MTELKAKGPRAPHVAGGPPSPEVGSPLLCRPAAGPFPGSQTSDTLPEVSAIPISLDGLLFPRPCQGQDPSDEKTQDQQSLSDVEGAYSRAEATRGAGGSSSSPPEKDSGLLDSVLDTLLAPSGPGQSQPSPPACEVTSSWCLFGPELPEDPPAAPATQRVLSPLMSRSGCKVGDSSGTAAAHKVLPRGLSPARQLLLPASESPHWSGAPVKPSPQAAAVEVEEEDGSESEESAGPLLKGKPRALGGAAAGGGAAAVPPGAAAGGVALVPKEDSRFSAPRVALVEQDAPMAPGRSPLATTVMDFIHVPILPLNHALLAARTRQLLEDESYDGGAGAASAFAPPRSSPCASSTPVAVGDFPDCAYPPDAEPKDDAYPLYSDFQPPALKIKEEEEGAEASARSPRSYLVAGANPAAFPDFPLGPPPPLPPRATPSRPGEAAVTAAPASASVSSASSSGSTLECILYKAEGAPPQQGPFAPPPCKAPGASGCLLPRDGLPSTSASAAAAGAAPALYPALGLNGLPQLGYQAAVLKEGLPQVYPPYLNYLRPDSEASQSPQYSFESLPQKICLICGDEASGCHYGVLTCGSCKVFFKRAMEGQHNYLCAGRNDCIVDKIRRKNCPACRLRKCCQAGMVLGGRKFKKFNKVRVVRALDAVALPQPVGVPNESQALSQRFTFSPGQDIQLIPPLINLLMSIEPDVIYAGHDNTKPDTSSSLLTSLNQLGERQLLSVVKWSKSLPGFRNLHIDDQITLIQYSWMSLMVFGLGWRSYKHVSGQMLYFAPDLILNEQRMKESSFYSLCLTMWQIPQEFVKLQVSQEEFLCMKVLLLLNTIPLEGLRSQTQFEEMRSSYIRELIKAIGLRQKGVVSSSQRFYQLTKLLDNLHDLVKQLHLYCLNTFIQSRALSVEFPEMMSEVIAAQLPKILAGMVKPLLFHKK
# UniProt P33261, sequence (P33261 whole entry, looked up): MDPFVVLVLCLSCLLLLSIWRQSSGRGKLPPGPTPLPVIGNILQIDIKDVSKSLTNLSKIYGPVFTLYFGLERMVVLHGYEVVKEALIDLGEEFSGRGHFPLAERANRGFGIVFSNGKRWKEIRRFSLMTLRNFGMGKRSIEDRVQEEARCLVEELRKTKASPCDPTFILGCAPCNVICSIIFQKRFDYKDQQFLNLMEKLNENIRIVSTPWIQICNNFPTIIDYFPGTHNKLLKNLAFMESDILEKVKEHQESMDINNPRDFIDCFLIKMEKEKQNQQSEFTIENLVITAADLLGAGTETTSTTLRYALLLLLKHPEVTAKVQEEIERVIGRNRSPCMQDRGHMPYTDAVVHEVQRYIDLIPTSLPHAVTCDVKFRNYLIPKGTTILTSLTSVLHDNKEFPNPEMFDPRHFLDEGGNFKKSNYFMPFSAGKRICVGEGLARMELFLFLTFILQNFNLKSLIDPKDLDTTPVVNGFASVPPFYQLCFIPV
# UniProt Q9R1A7, sequence (Q9R1A7 whole entry, looked up): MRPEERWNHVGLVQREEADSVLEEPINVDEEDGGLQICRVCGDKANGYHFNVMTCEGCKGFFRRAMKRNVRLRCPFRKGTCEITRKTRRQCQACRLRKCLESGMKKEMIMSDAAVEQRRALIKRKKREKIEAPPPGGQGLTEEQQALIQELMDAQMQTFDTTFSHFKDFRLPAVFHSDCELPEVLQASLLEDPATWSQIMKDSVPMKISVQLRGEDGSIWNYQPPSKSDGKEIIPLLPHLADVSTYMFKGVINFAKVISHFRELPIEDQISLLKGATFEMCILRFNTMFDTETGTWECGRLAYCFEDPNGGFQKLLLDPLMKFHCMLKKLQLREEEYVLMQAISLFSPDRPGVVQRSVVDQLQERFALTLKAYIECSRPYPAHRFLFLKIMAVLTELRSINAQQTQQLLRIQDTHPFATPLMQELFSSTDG
smiles,measurement,setting,value
ClC/C=C/CCl,Potency,[1],inactive
same,Potency,[2],"inconclusive: 27.1 µM [rising, partial curve, poor fit] and inconclusive: 61.4 µM [rising, partial curve, poor fit]"
same,Potency,[3],inactive
CCCCC/C=C/CC1CC(=O)OC1=O (configuration not stated),Potency,[1],inactive
same,Potency,[4],"inconclusive: 24.3 µM [rising, full curve, poor fit]"
same,Potency,[3],inactive
same,Potency,[5],"inconclusive: 89.4 µM [inhibitor, single point]"
C/C(=C1\CCOC(=O)S1)N(C=O)Cc1cnc(C)nc1N,Potency,[1],inactive
same,Potency,[4],inactive
same,Potency,[5],"inconclusive: 43.6 µM [inhibitor, single point]"
CCc1ccc2c(c1)C(=O)c1ccccc1C2=O,Potency,[1],"inconclusive: 48.6 µM [falling, partial curve]"
same,Potency,[4],"inconclusive: 77 µM [cytotoxic, partial curve, poor fit]"
same,Potency,[6],"inconclusive: 20 µM [inhibitor, full curve]"
CC1CCCO1 (configuration not stated),"activity change, negative = inhibition",[1],inconclusive: 6.19%
same,Potency,[7],"inconclusive: 67.1 µM [activator, single point]"
O=c1[nH]cnc2ccccc12,"activity change, negative = inhibition",[1],inconclusive: -50.1%
same,"activity change, negative = cytotoxicity",[4],inconclusive: -58.4%
same,Potency,[8],inactive
CCOC(=O)Nc1ccc(NCc2ccc(F)cc2)nc1N,Potency,[1],inactive
same,max activation,[9],inactive: 1.97%
same,Potency,[10],"inconclusive: 15.8 µM [activator, single point]"
same,Potency,[6],active: 3.09 µM
same,Potency,[8],active: 6.17 µM
Cc1ccc(Cl)cc1N,"activity change, negative = inhibition",[1],inconclusive: -0.0487%
same,Potency,[4],"inconclusive: 69.8 µM [cytotoxic, single point]"
same,Potency,[6],"inconclusive: 40.7 µM [inhibitor, partial curve]"
same,Potency,[8],"inconclusive: 25.7 µM [inhibitor, full curve, poor fit]"
